# Among all 390,000 compounds or so, about 17,000 (4.4%) were called active. The inconclusive results got no clear call from the source; some entries with a clear call stand among them for comparison. Calls follow the shape of the dose curve; as a rule, active = well fitted inhibition curve with a large enough effect; inconclusive = small, poorly fitted or top-dose-only effect; inactive = no such curve, though single readings can be large or run the other way. Where the call is inconclusive, the potency comes from a doubtful curve fit.
# Molecular target: Lysine-specific demethylase 4A (Homo sapiens) (UniProt O75164)
# Experiment: qHTS Assay for Inhibitors of JMJD2A-Tudor Domain; also: nearly all actives have a fitted effect of over 50% in size
# Conditions: AlphaScreen JMJD2A-Tudor / H3K4me3 peptide binding; activity change, negative = inhibition: at 114 µM (top of the series)
# % is scaled to controls: 0 for no effect and ±100 for the full control effect; potency is read from the fitted curve at half-maximal effect; tags tell the direction and shape of the fitted curve.
# Sequence of UniProt O75164 (O75164 whole entry, looked up, the tested form may be a part): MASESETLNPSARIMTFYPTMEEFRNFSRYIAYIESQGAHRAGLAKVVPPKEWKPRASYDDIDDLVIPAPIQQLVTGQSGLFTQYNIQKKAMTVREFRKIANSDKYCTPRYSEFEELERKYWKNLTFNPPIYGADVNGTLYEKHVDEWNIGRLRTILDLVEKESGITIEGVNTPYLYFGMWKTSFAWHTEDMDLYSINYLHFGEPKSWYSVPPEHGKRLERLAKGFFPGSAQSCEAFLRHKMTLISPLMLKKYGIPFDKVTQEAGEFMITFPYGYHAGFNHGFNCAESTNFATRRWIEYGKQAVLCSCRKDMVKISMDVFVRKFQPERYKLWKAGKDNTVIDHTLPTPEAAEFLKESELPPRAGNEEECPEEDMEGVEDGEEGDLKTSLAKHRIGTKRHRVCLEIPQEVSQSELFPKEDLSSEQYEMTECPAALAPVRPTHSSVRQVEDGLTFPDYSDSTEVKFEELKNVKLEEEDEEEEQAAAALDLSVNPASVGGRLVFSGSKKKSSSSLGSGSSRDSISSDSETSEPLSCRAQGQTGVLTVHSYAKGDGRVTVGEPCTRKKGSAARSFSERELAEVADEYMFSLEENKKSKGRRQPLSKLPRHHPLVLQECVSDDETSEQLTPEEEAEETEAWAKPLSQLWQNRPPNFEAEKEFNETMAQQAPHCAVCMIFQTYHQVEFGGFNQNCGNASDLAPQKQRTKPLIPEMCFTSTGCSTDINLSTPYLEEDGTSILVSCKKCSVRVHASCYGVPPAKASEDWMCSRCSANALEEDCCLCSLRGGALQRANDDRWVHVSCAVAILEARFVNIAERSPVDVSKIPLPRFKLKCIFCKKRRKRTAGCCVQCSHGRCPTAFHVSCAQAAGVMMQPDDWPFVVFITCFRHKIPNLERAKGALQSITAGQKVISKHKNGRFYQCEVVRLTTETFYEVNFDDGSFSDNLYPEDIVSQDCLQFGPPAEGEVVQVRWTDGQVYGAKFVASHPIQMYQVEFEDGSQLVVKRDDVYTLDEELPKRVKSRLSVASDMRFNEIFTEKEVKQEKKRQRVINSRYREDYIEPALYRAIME
Structure (SMILES),"activity change, negative = inhibition",Potency
COc1ccc(CCNC(=O)CCc2c(C)nc3c(c(C)nn3-c3ccc(C)cc3)c2C)c(OC)c1,inactive: -15.2%,–
CCC(=O)Nc1nnc(S(=O)(=O)N2CCCc3ccccc32)s1,inactive: -17.7%,–
COc1cc([N+](=O)[O-])ccc1NC(=O)NNC(=O)CCc1ccccc1,inactive: -25.9%,–
COc1ccc(-c2c(-c3cc(OC)cc(OC)c3)n(C)c3ccc(-c4cccc5[nH]ccc45)cc23)cc1,–,"inconclusive: 79.4 µM [inhibitor, partial curve]"
COc1ccc(Nc2cc(C)nc(-n3nc(C)cc3C)n2)cc1Cl,–,"inconclusive: 11.2 µM [inhibitor, full curve]"
Cc1ccc(S(=O)(=O)c2nc(NCCCn3ccnc3)sc2Cl)cc1,–,"inconclusive: 56.2 µM [inhibitor, partial curve]"
CCOC(=O)Cc1cc(=O)c2c(=O)n(-c3ccccc3)[nH]c2[nH]1,–,"inconclusive: 79.4 µM [inhibitor, partial curve]"
NC(=S)c1ccc[n+]([O-])c1,–,active: 1.12 µM
Cc1ccc(C2=Nc3ccccc3NC(c3ccncc3)=N2)cc1,–,"inconclusive: 56.2 µM [inhibitor, partial curve]"
O=C(CNC(=O)c1ccncc1)Nc1ccc(F)c(F)c1,inactive: 36.5%,–
O=c1c2cc(Cl)ccc2nc(-c2ccc(Cl)c(Cl)c2)n1O,inactive: -22.5%,–
Cc1ccc(-c2cn3c(n2)sc2cc(C(=O)NCCCc4ccccc4)ccc23)cc1,inactive: -4.28%,–
CCCN(CC(=O)Nc1ccccc1OC)C(=O)c1cccc(S(=O)(=O)Nc2ccc(OC)cc2)c1,inactive: -13.1%,–
O=C1OC(c2ccccc2)=N/C1=C\C=C\c1ccco1,–,"inconclusive: 35.5 µM [inhibitor, partial curve]"
Cc1ccc(S(=O)(=O)N2CCOCC2)c(C)c1-n1cnnn1,inactive: 4.97%,–
Cc1cc(OCCCSc2nc(-c3ccc(C(C)(C)C)cc3)nc3cc(=O)[nH]n23)ccc1Cl,–,active: 31.6 µM
CC(C)c1ccc(NC(=O)CCCc2nc(-c3ccc(Cl)cc3)no2)cc1,inactive: -2.65%,–
Cc1nc2ccc(S(=O)(=O)CCC(=O)Nc3ccc(F)cc3C)cc2s1,–,active: 70.8 µM
COc1cc(/C=C2\SC(=S)N(NC(=O)c3ccc(O)cc3)C2=O)ccc1O,–,"inconclusive: 63.1 µM [inhibitor, partial curve]"
Oc1c(Br)cc(Br)cc1CNc1ccc(F)cc1,–,"inconclusive: 44.7 µM [inhibitor, partial curve]"
CN1CCN(CC(=O)NC2CCCCC2)CC1,inactive: -11.3%,–
CC1Cc2nc(SCC(=O)N3CCN(c4ccccc4)CC3)n(CCc3ccccc3)c(=O)c2S1 (stereo not drawn),–,"inconclusive: 22.4 µM [inhibitor, full curve]"
Fc1ccc(CN2CCC(Cc3ccccc3)CC2)cc1F,–,active: 28.2 µM
Cc1ccc(-n2cc(S(=O)(=O)c3ccc(C)cc3)[nH]c2=O)cc1,–,"inconclusive: 22.4 µM [inhibitor, full curve]"
CCCCCCSc1cc(-c2nc3ccc(Cl)cn3c2NC2CCCCC2)ccc1OC,–,"inconclusive: 89.1 µM [inhibitor, single point]"

Structure (SMILES),"activity change, negative = inhibition",Potency
CN1CCN(NC(=O)CN2C(=O)/C(=C/c3ccccc3Cl)SC2=S)CC1,–,"inconclusive: 35.5 µM [inhibitor, partial curve, poor fit]"
Cn1c(=O)[nH]c(=O)c2c1nc(NCCc1ccccc1)n2CC(O)COc1ccccc1 (stereo not drawn),inactive: -1.27%,–
Cc1cc(C)c(S(=O)(=O)Nc2ncn[nH]2)cc1C,–,"inconclusive: 39.8 µM [inhibitor, partial curve]"
O=C(COc1ccc(Br)cc1)Nc1ccccc1N1CCCC1,inactive: 1.38%,–
COc1ccc(NC(=O)c2sccc2-n2cccc2)cc1,–,"inconclusive: 17.8 µM [inhibitor, full curve, poor fit]"
COc1cc(C2C3=C(Nc4ncnn42)c2ccccc2CC3)cc(OC)c1OC (stereo not drawn),inactive: -23.8%,–
CCC(=O)NC1CC(=O)N(c2ccc3c(c2)OCCO3)C1 (stereo not drawn),inactive: -9.74%,–
COc1cc(/C=C(/C#N)C(=O)Nc2ccccc2)c(Br)cc1OCc1ccc(C(=O)O)cc1,–,"inconclusive: 63.1 µM [inhibitor, partial curve]"
COc1cc(-c2cc(OC)c3c(C)oc(C)c3c(=O)c2)ccc1OC(=O)c1ccccc1C,–,"inconclusive: 50.1 µM [inhibitor, partial curve, poor fit]"
CCNC(=O)c1ccc(CSc2ccc(Cl)cc2)cc1,–,"inconclusive: 25.1 µM [inhibitor, full curve, poor fit]"
CC(C)=CCC/C(C)=C/CNC(=O)C[C@H]1C[C@H](C(=O)N2CCCCC2)[C@@]2(C)c3[nH]c4cc(CCC(=O)N(C)C)ccc4c3CCN2C1=O,–,"inconclusive: 39.8 µM [inhibitor, partial curve]"
COc1ccc(OC)c(NC(=O)Cn2cc(C(=O)c3ccco3)c3ccccc32)c1,–,"inconclusive: 44.7 µM [inhibitor, full curve, poor fit]"
CCc1ccc2oc(-c3ccc(OC)cc3)cc(=Nc3c(C)n(C)n(-c4ccccc4)c3=O)c2c1,–,"inconclusive: 22.4 µM [inhibitor, full curve]"
O=C(Nc1cccc2cccnc12)c1ccc(F)cc1,–,inactive
CCOC(=O)c1ccc(N2C(=O)c3[nH]nc(-c4ccc(OCC)cc4)c3C2c2ccc(OC)cc2OC)cc1 (stereo not drawn),–,"inconclusive: 4.47 µM [inhibitor, full curve, poor fit]"
CCOC(=O)N1CCN(C(=O)c2nn(C)c3c2CSc2ccccc2-3)CC1,inactive: -19.7%,–
COC(C(=O)Nc1ccnn1C1CCN(Cc2ccccn2)CC1)c1ccccc1 (stereo not drawn),–,"inconclusive: 22.4 µM [inhibitor, partial curve]"
CC(=O)Nc1n[nH]c(S(=O)(=O)Cc2ccc(Cl)cc2Cl)n1,–,active: 50.1 µM
COc1ccc2sc(N(CCN(C)C)C(=O)c3ccc4ccccc4c3)nc2c1,–,active: 39.8 µM
Cc1ccc(C(=O)NC(=S)Nc2ccc(NC(=O)c3cccc(Cl)c3)cc2)cc1,–,"inconclusive: 70.8 µM [inhibitor, single point]"
Cn1c(SCc2cnc(-c3ccccc3)s2)nnc1C1COc2ccccc2O1 (stereo not drawn),–,"inconclusive: 89.1 µM [inhibitor, single point]"
COc1ccccc1N1CCN(CC(O)COc2ccc(C)c(C)c2)CC1 (stereo not drawn),–,"inconclusive: 20 µM [inhibitor, partial curve]"
Cc1nn(-c2ccccc2)c(C)c1/C=N/Nc1nc2ccccc2[nH]1,–,active: 56.2 µM
CCCSCCCNC(=O)c1ccc2c(c1)nc1n2CCCCC1,inactive: -0.325%,–
NC(=O)c1ccc(N2CCCCC2)c(N2C(=O)C3CC=CCC3C2=O)c1 (stereo not drawn),inactive: -5%,–

Structure (SMILES),"activity change, negative = inhibition",Potency
COc1ccc(S(=O)(=O)N2CCN(Cc3ccc4c(c3)OCO4)CC2)cc1OC,inactive: -29.7%,–
O=C1CCN(CCc2ccccc2)CCN1[C@H](CSc1ccc(Br)cc1)c1ccccc1,–,"inconclusive: 50.1 µM [inhibitor, partial curve]"
O=S(=O)(Nc1nc2ccccc2nc1NCc1ccco1)c1ccc(Cl)cc1,inactive: -14.5%,–
CC(C)c1cc(-c2nc(-c3ccccc3)no2)n[nH]1,inactive: 3.25%,–
O=C(CN1CCCCC1)N1CCc2ccccc21,inactive: -17.4%,–
CCOC(=O)c1c(C)oc2c1c1c(c3ccccc32)OCN(CCCC(=O)O)C1,–,"inconclusive: 50.1 µM [inhibitor, partial curve]"
Cc1c(-c2ccnc3cc(C(=O)O)nn23)cnn1C,–,"inconclusive: 35.5 µM [inhibitor, single point]"
COc1cccc(/C=N/NC(=O)c2[nH]c(C)c(C(=O)N/N=C/c3cccc(OC)c3O)c2C)c1O,–,"inconclusive: 22.4 µM [inhibitor, full curve]"
O=C(CSc1nc(-c2ccccc2)[nH]c1-c1ccccc1)Nc1ccc2c(c1)OCCO2,–,"inconclusive: 25.1 µM [inhibitor, full curve]"
CC[C@H](C)[C@H](NC(N)=O)C(=O)Nc1ccc(OC)c(Cl)c1,inactive: -6.51%,–
CCOC(=O)C1=C(c2ccccc2)N=c2s/c(=C\c3cccc(O)c3)c(=O)n2C1c1cccs1 (stereo not drawn),–,"inconclusive: 10 µM [inhibitor, partial curve, poor fit]"
O=C1c2ccccc2N[C@@H]2C=CC[C@@H]2N1O,–,"inconclusive: 17.8 µM [inhibitor, full curve]"
COc1ccccc1N1CCN(/N=C/c2cccc(OC)c2OC)CC1,–,"inconclusive: 56.2 µM [inhibitor, partial curve]"
Cc1cccc(Nc2nc(N)c([N+](=O)[O-])c(N3CC(C)CC(C)C3)n2)c1 (stereo not drawn),–,"inconclusive: 22.4 µM [inhibitor, full curve]"
CC12CCC(C(=O)N(CSC(=S)N/N=C\c3ccccc3O)C1=O)C2(C)C (stereo not drawn),–,active: 39.8 µM
O=C(N/N=C/c1ccc(O)c(O)c1)C1CC1,–,"inconclusive: 39.8 µM [inhibitor, single point]"
Cc1ccc(Nc2nnc(-c3ccc4c(c3)OCO4)o2)c(C)c1,inactive: -10.9%,–
C=CCn1c(-c2cccc(OC)c2OC)n[nH]c1=S,–,active: 7.94 µM
COc1ccc([N+](=O)[O-])cc1NS(=O)(=O)c1ccc(C)cc1,inactive: -18.1%,–
Cc1cc2c(NC(=O)Nc3ccc(C(C)(C)C)cc3)cccc2nn1,–,"inconclusive: 44.7 µM [inhibitor, partial curve]"
COc1cc(/C=C2\SC(=S)N(NC(C)=O)C2=O)ccc1OC(=O)c1ccco1,–,"inconclusive: 10 µM [inhibitor, full curve, poor fit]"
O=c1c2ccccc2nnn1CSc1nnc(COc2ccc(Cl)cc2)n1Cc1ccco1,–,"inconclusive: 79.4 µM [inhibitor, partial curve]"
O=C(CN1CCSc2ccccc21)N1CCN(c2cccc(Cl)c2)CC1,–,"inconclusive: 31.6 µM [inhibitor, partial curve]"
